Assay results reported in PubChem BioAssay AID2202238 (Ras Initiative Chemistry Research Team, Frederick National …, 2025).
Some of the results follow. Further columns of the screen follow, without active or inactive calls.

Molecular target: GTPase KRas (Homo sapiens) (UniProt P01116)
Assay: Cysteine mutants labelled by reactive fragments (mass read-out) (AID 2202238)
Design: protein at 5 µM with 500 µM competing thiol for 1.5 h
Conditions: KRAS G12D cysteine mutants, disulfide tethering, MALDI-TOF labeling, stronger effect = higher value, fragment at 500 µM
[1] = measured here: G75C mutant labeling
[2] = measured here: H94C mutant labeling
[3] = measured here: I36C mutant labeling
[4] = measured here: L120C mutant labeling
[5] = measured here: M67C mutant labeling
[6] = measured here: M72C mutant labeling
[7] = measured here: N86C mutant labeling
[8] = measured here: P121C mutant labeling
[9] = measured here: S122C mutant labeling
[10] = measured here: S136C mutant labeling
[11] = measured here: G60C mutant labeling
[12] = measured here: N26C mutant labeling

Chain of UniProt P01116 (P01116 whole entry, looked up, the tested form may be a part): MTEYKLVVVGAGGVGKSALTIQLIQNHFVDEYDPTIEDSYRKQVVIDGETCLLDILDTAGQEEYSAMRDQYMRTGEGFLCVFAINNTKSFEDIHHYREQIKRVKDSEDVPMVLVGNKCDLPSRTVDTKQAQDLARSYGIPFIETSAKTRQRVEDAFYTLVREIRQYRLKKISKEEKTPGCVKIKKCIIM

SMILES | percent labeling [1] [%] | percent labeling [2] [%] | percent labeling [3] [%] | percent labeling [4] [%] | percent labeling [5] [%] | percent labeling [6] [%] | percent labeling [7] [%] | percent labeling [8] [%] | percent labeling [9] [%] | percent labeling [10] [%] | percent labeling [11] [%] | percent labeling [12] [%]
N#Cc1cc2c([nH]c1=O)CCC(NC(=O)CCS)C2 (centres undefined) | 13.5 | 35 | 47.3 | 28.7 | 47.5 | 22.5 | 15.8 | 37.8 | 32.9 | 57.2 | – | –
Cn1ccnc1[C@H]1[C@H](C(=O)NCCS)CCC(=O)N1C1CC1 | 5 | 27.5 | 24.1 | 14.5 | 29 | 6.8 | 16.3 | 23.8 | 19.7 | 36.7 | 29.9 | 25.5
Cc1nc(N2CCN(C(=O)CCS)CC2)n[nH]1 | 15.8 | 22.9 | 34 | 26.7 | 30.2 | 14.5 | 22.5 | 26.8 | 36.9 | 52.1 | – | –
Cc1nc(N)c2c(C)c(C(=O)NCCS)sc2n1 | 7.7 | 13.3 | 11.4 | 15.3 | 13.9 | 26.5 | 20.5 | 10.6 | 10.9 | 25.3 | 14.6 | 36.2
Cc1nccc(-c2cccc(NC(=O)CCS)c2)n1 | 15.2 | 29.7 | 39.2 | 30.3 | 26.3 | 43.7 | 24.7 | 21.9 | 18.9 | 43.3 | – | –
Cn1cnc2cccc(CNC(=O)CCS)c21 | 22.9 | 30.5 | 42.5 | 24.2 | 41.4 | 28.4 | 24.2 | 34.4 | 32.9 | 50.1 | – | –
O=C(NCCS)c1occc1CN1C(=O)Cc2ccccc21 | 17.8 | 24.3 | 12.6 | 16.8 | 26 | 51 | 12.7 | 16.2 | 11.2 | 21.8 | 29.9 | 23.7
O=C(NCCS)C1CCN(c2ccc3cccc(O)c3n2)CC1 | 8.1 | 13 | 7.9 | 8.1 | 15.4 | 12.2 | 10.4 | 10.5 | 5 | 11.2 | 23 | 22.7
COc1ccc(Br)cc1C1(NC(=O)CCS)CC1 | 17.5 | 44.3 | 38.2 | 25.7 | 36.5 | 39.1 | 31.9 | 23.7 | 29.2 | 57.5 | – | –
Cc1ccc(C(=O)NCCS)cc1-c1cnn(C)c1 | 16.4 | 23.1 | 14.7 | 22.9 | 18.5 | 56.1 | 16.4 | 17 | 16.9 | 30.7 | 34.7 | 53.4
CC(NC(=O)c1ccc(Br)o1)C(=O)NCCS (centres undefined) | 10.8 | 30.5 | 23.2 | 46.6 | 29.6 | 14.4 | 21.6 | 28.4 | 26.7 | 39 | 26.6 | 31.5
O=C(CCn1c(=O)[nH]c(=O)c2ccccc21)NCCS | 13.2 | 34 | 29.4 | 35.3 | 30.7 | 19.3 | 25.2 | 37.2 | 25.1 | 39.5 | 38.1 | 33.2
O=C(CCCc1c[nH]c2ccccc12)NCCS | 16.6 | 18.6 | 12 | 24.4 | 46.3 | 32.7 | 14.1 | 16.5 | 12.5 | 25.3 | 32.5 | 24.9
O=C(NCCS)c1ccc2c(Br)cnn2c1 | 6.4 | 8.4 | 9 | 9.3 | 8 | 20.6 | 10.5 | 9.4 | 6.8 | 11.2 | 22.8 | 19.7
O=C(NCCS)c1occc1-c1ccc(F)cc1 | 19.9 | 25.2 | 10.7 | 27.2 | 15.1 | 44.1 | 5.5 | 11.5 | 8.4 | 24.4 | 30.5 | 26.9
C[C@H]1OCC(=O)N(Cc2ccccc2)[C@@H]1C(=O)NCCS | 13.7 | 37.4 | 31.7 | 29.1 | 42.2 | 29.7 | 34.3 | 38.3 | 36.8 | 58.9 | 38.4 | 36.9
O=C(CCS)N(c1ccc(F)cc1)C1CCC1 | 20.8 | 50.7 | 36.4 | 20.2 | 30.5 | 52.3 | 26.8 | 31.8 | 28.5 | 51.5 | – | –
O=C(NCCS)C1CC(=O)N(CCc2ccc(F)cc2)C1 (centres undefined) | 18.8 | 41.1 | 37.7 | 44.1 | 42 | 41.5 | 28.5 | 36.3 | 33.2 | 55.6 | 46.4 | 50.8
COc1nc(C)ccc1CNC(=O)CCS | 17.3 | 29.6 | 40.8 | 23.3 | 37.4 | 26.9 | 17.9 | 33.4 | 31.7 | 52.7 | – | –
O=C(CCS)NCc1ccc(CN2C(=O)CNC2=O)cc1 | 13 | 36.6 | 42.4 | 34.5 | 36.1 | 25.9 | 32.3 | 32 | 36.4 | 46.6 | – | –
O=C(NCCS)c1ncoc1-c1ccc(F)cc1 | 25.8 | 27.3 | 9 | 33.7 | 21.6 | 57.6 | 13.1 | 14.6 | 14 | 26.3 | 26.4 | 22
O=C(NCCS)c1csc(COc2ccc(F)cc2)n1 | 13.1 | 17.2 | 18 | 17.8 | 13.5 | 40.9 | 11.1 | 13.6 | 8.9 | 23.2 | 20.5 | 14.9
Cc1nc(C(=O)N2CCC(C(=O)NCCS)CC2)c(C)o1 | 10.7 | 32.7 | 23.3 | 33.5 | 26.2 | 11.7 | 21.4 | 28 | 28.1 | 45 | 26 | 31.7

SMILES | percent labeling [1] [%] | percent labeling [2] [%] | percent labeling [3] [%] | percent labeling [4] [%] | percent labeling [5] [%] | percent labeling [6] [%] | percent labeling [7] [%] | percent labeling [8] [%] | percent labeling [9] [%] | percent labeling [10] [%] | percent labeling [11] [%] | percent labeling [12] [%]
CC(C(=O)NCCS)N1CCCCCC1 (centres undefined) | 18.5 | 42.3 | 37.6 | 27.6 | 45.4 | 24.3 | 25.9 | 35.8 | 30.2 | 44.4 | 36.6 | 39.8
O=C(NCCS)C1CCCc2sc(Nc3ccccc3)nc21 (centres undefined) | 16 | 17.7 | 9.6 | 17.8 | 12.2 | 25.1 | 7.8 | 8.4 | 3.5 | 10.1 | 34.7 | 22.8
CC(C)(Oc1c(F)cccc1F)C(=O)NCCS | 28.4 | 39.5 | 14.5 | 27.7 | 21.4 | 25.4 | 19.1 | 51.5 | 21.1 | 36.4 | 52.8 | 37.1
CC(=O)N1CCc2cc(C(=O)NCCS)ccc21 | 15.4 | 21.7 | 21.3 | 24.2 | 25.2 | 37.2 | 18.3 | 20.2 | 21.7 | 34.1 | 32.4 | 47.6
O=C(CCS)Nc1ccccc1-c1ncc2n1CCCC2 | 16.7 | 40.7 | 51.8 | 29.7 | 49.6 | 37.2 | 31.3 | 31.3 | 31.3 | 56.7 | – | –
CN1CCN(CCc2cccc(NC(=O)CCS)c2)CC1 | 11 | 44 | 49.9 | 30.5 | 43.5 | 35.3 | 34.6 | 29 | 26.3 | 49.3 | – | –
O=C(NCCS)c1cc2scc(Br)c2s1 | 7.9 | 9.6 | 9.8 | 5.7 | 7.1 | 30.2 | 10.4 | 7.9 | 5.8 | 8.6 | 27.5 | 21.8
Cc1nn(C(C)(C)C)c2nc(C(C)C)cc(C(=O)NCCS)c12 | 13.5 | 13.7 | 7.4 | 9.7 | 7.7 | 22.9 | 9.3 | 10.4 | 4.3 | 22.8 | 21.5 | 17.1
O=C(NCCS)c1ncccc1Br | 21.3 | 37.7 | 23.7 | 48.1 | 29.7 | 32.8 | 40.8 | 32.8 | 33.6 | 45.9 | 32.2 | 38.5
CC1(C(=O)NCCS)CCN(c2ccc(Cl)cc2C#N)CC1 | 8.8 | 12.8 | 8.1 | 11.2 | 9.3 | 24.5 | 7.7 | 9.3 | 5.6 | 15.3 | 25.2 | 29.2
O=C(CCS)NCc1cccnc1Oc1cccc(F)c1 | 14.9 | 36.6 | 35.6 | 29.3 | 46.1 | 43.9 | 26.5 | 32.3 | 35 | 61.3 | – | –
Cc1c(NC(=O)CCS)cnn1CC(C)(C)O | 9.4 | 26.7 | 30.3 | 26.3 | 28.2 | 15.1 | 23 | 31.5 | 36.2 | 49 | – | –
Cc1ccc(NC(=O)CCS)cc1N1C(=O)CNC1=O | 11.5 | 31.4 | 36.1 | 44.4 | 30 | 37.7 | 35.5 | 32.2 | 35.2 | 52.3 | – | –
O=C(NCCS)C1CCN(C(=O)C2CCCCC2)CC1 | 13.2 | 33.4 | 24.1 | 31.1 | 29.4 | 14.6 | 22.5 | 28.1 | 28.3 | 38.6 | 26.4 | 36.2
O=C(CCS)N1CCn2c(CC3CC3)nnc2C1 | 7.9 | 24 | 33.8 | 20.5 | 27 | 12.7 | 12.9 | 28.7 | 30.4 | 44.6 | – | –
COc1cc[nH]c(=O)c1CNC(=O)CCS | 0 | 28.1 | 37.2 | 28.4 | 27.8 | 13.3 | 20.1 | 30.7 | 31.8 | 45 | – | –
Cc1ccn(C2CCN(C(=O)CCS)CC2)n1 | 15.1 | 33.1 | 32.1 | 33.8 | 29.9 | 18.9 | 18.1 | 32.8 | 31.9 | 51.8 | – | –
COC(=O)c1sc2c(c1Br)CN(C(=O)CCS)C2 | 15.4 | 14.5 | 18.2 | 9.2 | 11.3 | 36 | 10.4 | 12.1 | 0 | 15.2 | – | –
Cc1cccc(Oc2ccc(NC(=O)CCS)c(C)n2)c1C | 11.8 | 18 | 20.6 | 15 | 42.1 | 32.7 | 19.2 | 20.8 | 11.2 | 33.3 | – | –
COc1cccc(-n2cc(NC(=O)CCS)nn2)c1 | 3.9 | 17.9 | 13.7 | 13.2 | 10.9 | 57.9 | 3.5 | 15.4 | 10 | 22.3 | – | –
O=C(Cc1cccc(OCC(F)(F)F)c1)NCCS | 15.4 | 26.9 | 15.5 | 26.1 | 18.8 | 23.8 | 15.6 | 19 | 17.2 | 24.1 | 31.9 | 30.4
Cc1cn(CC(=O)NCCS)nc1C(F)(F)F | 16.4 | 29.8 | 28.3 | 44.2 | 26.1 | 29.4 | 28 | 29.9 | 29.5 | 40.9 | 42 | 36.8
O=C(NCCS)c1nn2c(c1Br)CCC2 | 27.2 | 34.8 | 23 | 41.2 | 32.9 | 71.2 | 29.5 | 26.2 | 27.6 | 39.5 | 35 | 41.7
